Hit rate of the full screen: of about 310,000 compounds, about 2,200 (0.71%) showed an effect of 50% or more. The effect is printed as a negative number. This is one part of the list.
Each compound was assayed against human ether-à-go-go-related gene (hERG) potassium channel (human, UniProt Q12809) (assay: primary screen, population patch clamp on CHO cells stably expressing hERG).
Chain of human ether-à-go-go-related gene (hERG) potassium channel (Q12809 whole entry, looked up): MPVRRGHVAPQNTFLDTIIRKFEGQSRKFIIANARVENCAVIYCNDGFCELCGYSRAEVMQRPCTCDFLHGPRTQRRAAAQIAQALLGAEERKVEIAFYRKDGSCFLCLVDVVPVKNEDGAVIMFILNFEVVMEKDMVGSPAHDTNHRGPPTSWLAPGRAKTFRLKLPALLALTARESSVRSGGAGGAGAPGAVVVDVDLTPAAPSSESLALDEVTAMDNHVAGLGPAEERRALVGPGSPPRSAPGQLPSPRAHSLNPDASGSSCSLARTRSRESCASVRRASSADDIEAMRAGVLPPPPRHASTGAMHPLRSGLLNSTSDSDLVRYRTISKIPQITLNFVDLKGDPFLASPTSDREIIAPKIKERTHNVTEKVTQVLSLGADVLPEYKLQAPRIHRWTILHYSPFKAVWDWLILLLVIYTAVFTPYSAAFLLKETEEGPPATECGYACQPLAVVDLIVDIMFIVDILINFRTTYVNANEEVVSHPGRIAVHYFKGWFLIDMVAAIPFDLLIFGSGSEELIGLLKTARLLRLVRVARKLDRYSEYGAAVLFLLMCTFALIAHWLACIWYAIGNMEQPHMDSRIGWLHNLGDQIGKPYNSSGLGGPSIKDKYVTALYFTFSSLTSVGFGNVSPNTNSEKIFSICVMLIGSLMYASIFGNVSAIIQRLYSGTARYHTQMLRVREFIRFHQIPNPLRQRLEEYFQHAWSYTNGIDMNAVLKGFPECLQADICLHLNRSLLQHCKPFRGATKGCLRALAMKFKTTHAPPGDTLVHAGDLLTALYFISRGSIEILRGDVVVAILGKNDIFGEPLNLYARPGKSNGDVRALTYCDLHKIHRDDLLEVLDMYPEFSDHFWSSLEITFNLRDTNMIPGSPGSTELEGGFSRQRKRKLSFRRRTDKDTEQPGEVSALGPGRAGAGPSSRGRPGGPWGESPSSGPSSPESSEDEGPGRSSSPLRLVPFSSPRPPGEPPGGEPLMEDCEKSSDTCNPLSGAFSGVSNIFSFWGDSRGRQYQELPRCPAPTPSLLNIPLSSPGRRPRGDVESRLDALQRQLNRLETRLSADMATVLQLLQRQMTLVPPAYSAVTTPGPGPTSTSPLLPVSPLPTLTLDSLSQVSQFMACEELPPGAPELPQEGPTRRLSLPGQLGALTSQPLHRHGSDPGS

| SMILES | hERG current change (%, negative = inhibition) at 1uM |
| --- | --- |
| CCc1nnc(NS(=O)(=O)c2ccc(NC(=O)c3ccco3)cc2)s1 | 6.9% |
| CC12CCC(C(=O)O)(c3nc4cc([N+](=O)[O-])ccc4nc31)C2(C)C (centres unmarked) | 4.11% |
| CCN(C(=O)c1cccc(F)c1)c1ccccc1C | 11% |
| CCOC(=O)C1CCN(c2c(NCc3ccc(C(=O)NC(C)CC)cc3)c(=O)c2=O)CC1 (centres unmarked) | -0.0771% |
| O=C(O)CCC(=O)NCCn1c(-c2ccccc2)csc1=Nc1ccccc1 | 14% |
| Cc1cc(C)n2nc(SCc3cc(=O)oc4cc(C)c(C)cc34)nc2n1 | 15.1% |
| O=C(Nc1ccccc1F)c1ccc([N+](=O)[O-])s1 | 6.9% |
| CC(C)OP(=O)(O)NC(=O)c1ccccc1 | -0.176% |
| CC(=O)Nc1cccn(Cc2c(Cl)cccc2Cl)c1=O | 14.9% |
| Cc1ccc(S(=O)(=O)NCCC(=O)NNC(=O)C2COc3ccccc3O2)cc1 (centres unmarked) | 2.12% |
| C#CCN1c2ccccc2Sc2cccnc21 | 15.7% |
| O=C(O)CCNS(=O)(=O)c1ccc(Oc2ccccc2Cl)cc1 | -3.62% |
| COC(=O)C1SCC2C(=O)N(Cc3ccc(F)cc3)CC(=O)N21 (centres unmarked) | 9.76% |
| CCOc1ccc(C(=O)N2CCCC2)cc1OC | -1.68% |
| Cc1ccc(S(=O)(=O)Nc2cccnc2)cc1 | 24.3% |
| O=C(COC(=O)Cc1ccc(F)cc1)Nc1cc(S(=O)(=O)N2CCOCC2)ccc1N1CCCC1 | -0.409% |
| Cc1cc(C)n(-c2ccc(C(=O)N3CCc4ccccc43)cc2)n1 | 0.719% |
| CCOc1ccc(C(=O)Nc2ccc(C(F)(F)F)n(C)c2=O)cc1 | 2.14% |
| Cc1ccc(NC(=O)CCCCCNS(=O)(=O)c2ccc(C)cc2)cc1 | 11.2% |
| CCOC(=O)CN(C(=O)c1ccccc1[N+](=O)[O-])C(C)(C)C | 12.1% |
| CC(OC(=O)c1cccs1)C(=O)NC1CCCCC1C (centres unmarked) | -66.1% |
| Cn1c(SCC(=O)NC2CCCC2)nnc1-c1ccc(S(=O)(=O)N2CCOCC2)cc1 | -2.36% |
| COc1ccc(CCNC(=O)C2CCN(S(=O)(=O)c3ccc(F)cc3)CC2)cc1 | 0.603% |

| SMILES | hERG current change (%, negative = inhibition) at 1uM |
| --- | --- |
| COCCOC(=O)C1=C(C)N=C2SCCC(=O)N2C1c1cccc(Br)c1 (centres unmarked) | 3.78% |
| COc1ccc(OCC(Cn2cnc3ccccc32)OC(C)=O)cc1.Cl (centres unmarked) | 9.29% |
| COc1ccc(OC)c(-c2csc(NC(=O)C3COc4ccccc4O3)n2)c1 (centres unmarked) | 16.5% |
| O=C(CN1C(=O)CCC1=O)Nc1nc(-c2ccc(Oc3ccccc3)cc2)cs1 | 4.54% |
| Cc1cc[n+](-c2[nH]c(=O)sc2/C=N/NC([S-])=Nc2ccccc2)cc1C | 12.2% |
| Cc1ccc(CSCC(=O)Nc2ccccc2)cc1 | 10.6% |
| Cc1c(Br)cnn1C(C)C(=O)N1CCN(c2ccccc2F)CC1 (centres unmarked) | -3.94% |
| CN(C)CCN(CC1CCCN(Cc2ccccc2F)C1)C(=O)c1ccc(F)cc1 (centres unmarked) | 10.7% |
| CCC(C)(C(=O)NC1CCCCC1)N(C(=O)c1ccccn1)c1ccccc1 (centres unmarked) | -19.4% |
| N#C/C(=N/Nc1ccccc1F)C(=N)N1CCOCC1 | 13.6% |
| O=C(COC(=O)C1CCCCC1C(=O)N1CCc2ccccc21)NCc1ccco1 (centres unmarked) | 2.36% |
| COC(=O)[C@@H](NC(=O)N(C1CCCCC1)C1CCCCC1)C(C)C | 9.46% |
| COc1cccc(C(=O)NNC2OC(CO)C(O)C2O)c1 (centres unmarked) | 17.8% |
| Cc1c(C)n(CCCN(C)C)c2ncnc(NCc3ccccc3)c12 | 13.3% |
| Cn1c(SCC(=O)N2CCN(c3cccc(Cl)c3)CC2)nnc1-c1ccncc1 | -13.3% |
| Cc1cc(SCC(=O)c2cccs2)nc2c(C)cccc12 | -8.13% |
| COc1ccc(C(C)=O)cc1CN1C(=O)C(C)N(c2ccc(C)cc2)C1=O (centres unmarked) | -16.2% |
| Cc1cc(C)nc(N2CCCC(C(=O)Nc3cccc(Cl)c3)C2)n1 (centres unmarked) | 12.8% |
| O=C(COc1cccnc1[N+](=O)[O-])N1N=C(c2ccc(Cl)cc2)CC1c1ccco1 (centres unmarked) | 18.6% |
| O=C(NC(Cc1ccccc1)C(=O)O)/C(=C\c1cccc([N+](=O)[O-])c1)NC(=O)c1ccco1 (centres unmarked) | 30.3% |
| NS(=O)(=O)c1ccc(NC(=O)COC(=O)C2(c3ccccc3F)CCCC2)cc1 | -2.4% |
| O=C(c1ccc(F)cc1)N1CCN(c2cc(N3CCCCC3)c(F)cc2[N+](=O)[O-])CC1 | 2.91% |
| CN=C(Nc1cc(C)nn1CCC#N)c1ccc(F)cc1 | 16.4% |

| SMILES | hERG current change (%, negative = inhibition) at 1uM |
| --- | --- |
| Brc1cc(/C=N/n2cnnc2)oc1Br | 9.42% |
| O=C(Nc1ncccn1)c1ccc([N+](=O)[O-])cc1[N+](=O)[O-] | 6.47% |
| COc1ccc(C(=O)NNC(=O)C(NC(=O)c2ccccc2NC(=O)c2ccco2)C(C)C)cc1 (centres unmarked) | -8.18% |
| CC(C)CCNC(=O)CN(CCN1CCOCC1)C(=O)Cn1nnc(-c2ccc(F)cc2)n1 | 0.0812% |
| CCCN1C(=O)C2(C(C(=O)c3ccc(C)o3)=C(O)C(=O)N2CCCOC)c2ccccc21 (centres unmarked) | 7.99% |
| CCC1(CC)Cc2ccccc2-c2nc3ccccc3c(=O)n21 | 24.2% |
| CN(CC(=O)Nn1cnnc1)S(=O)(=O)c1ccccc1 | 13.3% |
| CCOc1ccc(OCC)c(NC(=O)C2CCN(S(=O)(=O)c3cccnc3)CC2)c1 | -48.6% |
| CCCC(=O)C1=C(O)C(C(=O)OC)C(C)(C)CC1=Nc1cccc([N+](=O)[O-])c1 (centres unmarked) | 4.96% |
| COc1ccc(NC(=O)C2CCN(S(=O)(=O)c3cccc4cccnc34)CC2)cc1OC | 14.5% |
| Cc1c(CCC(=O)O)c(=O)oc2c(C)c(OCc3cc4c(cc3Cl)OCO4)ccc12 | 14.7% |
| Cc1ccc(/C=N/NC(=O)c2ccoc2C)o1 | 13% |
| O=C(c1ccc2c(=O)n(CCc3ccccc3)c(=O)[nH]c2c1)N1CCN(c2ccccc2)CC1 | 7.33% |
| Cc1ccc(C(=O)N2NC(c3ccc(F)cc3)C3C(=O)N(c4ccc(C)c(C)c4)C(=O)C32)cc1 (centres unmarked) | 10.6% |
| S=c1[nH]nc(-c2ccc(Cl)cc2)n1CC1CCCO1 (centres unmarked) | 11.7% |
| CCCSC1=N/C(=C/c2ccsc2)C(=O)N1c1ccccc1 | 17.3% |
| O=C(Cn1nc(-c2ccco2)ccc1=O)Nc1ccc(Cl)c(Cl)c1 | 16.9% |
| CCc1c(C)nc2c(-c3ccccc3)c(C)[nH]n2c1=O | 17.1% |
| CCCCn1c(-c2csc3c2CCCC3)n[nH]c1=S | 7.71% |
| NC(=O)COC(=O)CSc1ccc2ccccc2c1 | 10.6% |
| COc1cc(OC)cc(C(=O)NCCCCCCNC(=O)c2cc(OC)cc(OC)c2)c1 | 5.74% |
| O=C(CN1C(=O)C2CC=CCC2C1=O)Nc1ccc(S(=O)(=O)Nc2ncccn2)cc1 (centres unmarked) | 4.78% |
| CC(=O)Nc1cccc(C(=O)NNC(=O)c2n[nH]c(=O)c3ccccc23)c1 | -5.98% |

| SMILES | hERG current change (%, negative = inhibition) at 1uM |
| --- | --- |
| CCC(C)(C)n1nnnc1C(C(C)C)N1CCN(C(=O)c2ccco2)CC1 (centres unmarked) | 1.04% |
| Clc1ccc(C(c2nnnn2CCc2ccccc2)N2CCSCC2)cc1 (centres unmarked) | 8.65% |
| CCN(CC(=O)Nc1ccc(N2CCOCC2)cc1)C(=O)c1ccc(C(F)(F)F)cc1 | 1.27% |
| Cc1ccccc1NC(=O)CCS(=O)(=O)c1ccc(Br)s1 | 17.5% |
| O=C1NCCCCC1NC1CC(=O)N(c2ccccc2)C1=O (centres unmarked) | 9.27% |
| Cc1ccc(S(=O)(=O)CC(=O)NCc2ccc(Cl)cc2)cc1 | 2.76% |
| COc1ccccc1N1CCN(C(=O)CSc2nnc(NC(=O)C(C)C)s2)CC1 | 17.7% |
| Cc1ccc(O)c(-c2cc(C(=O)NCc3ccncc3)[nH]n2)c1 | 8.05% |
| CN(/N=C/c1ccncc1)c1cnn(-c2ccc(F)c(Cl)c2)c(=O)c1Cl | -3.91% |
| CSc1nnc(-c2ccccc2)c(=O)[nH]1 | 12.4% |
| COc1ccc(C(=O)COc2ccc(NC(C)=O)cc2)cc1 | 17% |
| O=S(=O)(Nc1cccc(-c2ccc3nncn3n2)c1)c1cc(F)ccc1F | 1.78% |
| COc1ccc(C(=O)Nc2ccnn2C2CCN(C(=O)C3CCOC3)CC2)cc1 (centres unmarked) | 13.1% |
| CCCC(=O)Nc1nnc(SCC(=O)Nc2ccc3c(c2)OCCO3)s1 | 11.5% |
| O=C(Nc1c(F)cc(F)cc1Br)C1CCCO1 (centres unmarked) | 8.63% |
| Cc1cc(C)nc(NN=C2CCCC2)n1 | 15.3% |
| COc1ccc2cc(C(N)=O)c(=Nc3ccccc3)oc2c1 | 5.46% |
| O=C(NNC(=O)C1CCCO1)c1ccccc1Cl (centres unmarked) | -5.84% |
| CCOC(=O)N/N=C(\C)c1cccs1 | 16.5% |
| COc1cc2c(C(=O)N3CCOCC3)c(CSc3ccccc3)n(C)c2cc1Br | 4.68% |

Reference: paper PMC4336329 (PLoS ONE, 2015)
